# Assay results taken from the supplement of paper PMC8728848.
# This is one part of the list.
# Columns and labels:
# Assay in all cases: glycan array binding signal (z-score within array); higher = stronger binding
# Settings in all cases: glycan notation: IUPAC condensed, linker removed
# [1] = target: Fuc(a1-3)[Gal3S(b1-4)]Glc6S
# Outline: (§1)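 Glycan array data were curated from 3228 arrays in the Consortium for Functional Glycomics database and kept only where the protein sequence was available. Glycan names were converted to IUPAC-condensed notation, and columns mapping to the same glycan were averaged. The binding signal is a within-array Z-score, averaged across arrays of the same protein sequence at different concentrations or buffers and across linkers. Negative Z-scores can be read as non-binding.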
# [2] = target: Fuc(a1-3)[Gal3S(b1-4)]GlcNAc
# Outline: as §1
# [3] = target: Fuc(a1-3)[Gal3S(b1-4)]GlcNAc6S
# Outline: as §1
# [4] = target: Fuc(a1-3)[GalNAc(b1-4)]GlcNAc
# Outline: as §1
# Fuc(a1-4)GlcNAc = target: Fuc(a1-4)GlcNAc
# Outline: as §1
# Fuc(b1-3)GlcNAc = target: Fuc(b1-3)GlcNAc
# Outline: as §1
# Gal(a1-2)Gal = target: Gal(a1-2)Gal
# Outline: as §1
# Gal(a1-3)Gal = target: Gal(a1-3)Gal
# Outline: as §1
# Gal(a1-3)Gal(b1-3)GlcNAc = target: Gal(a1-3)Gal(b1-3)GlcNAc
# Outline: as §1
# Gal(a1-3)Gal(b1-4)Glc = target: Gal(a1-3)Gal(b1-4)Glc
# Outline: as §1
# Gal(a1-3)Gal(b1-4)GlcNAc = target: Gal(a1-3)Gal(b1-4)GlcNAc
# Outline: as §1
# [5] = target: Gal(a1-3)Gal(b1-4)[Fuc(a1-3)]GlcNAc
# Outline: as §1
# Gal(a1-3)GalNAc = target: Gal(a1-3)GalNAc
# Outline: as §1
# [6] = target: Gal(a1-3)[Gal(a1-4)]Gal(b1-4)GlcNAc
# Outline: as §1
# Gal(a1-4)Gal(b1-4)Glc = target: Gal(a1-4)Gal(b1-4)Glc
# Outline: as §1
# Gal(a1-4)Gal(b1-4)GlcNAc = target: Gal(a1-4)Gal(b1-4)GlcNAc
# Outline: as §1
# Gal(a1-4)GlcNAc = target: Gal(a1-4)GlcNAc
# Outline: as §1
# Gal(a1-6)Glc = target: Gal(a1-6)Glc
# Outline: as §1
# Gal(b1-2)Gal = target: Gal(b1-2)Gal
# Outline: as §1
# Gal(b1-3)Gal = target: Gal(b1-3)Gal
# Outline: as §1
# Gal(b1-3)Gal(b1-4)GlcNAc = target: Gal(b1-3)Gal(b1-4)GlcNAc
# Outline: as §1
# Gal(b1-3)GalNAc = target: Gal(b1-3)GalNAc
# Outline: as §1
# [7] = target: Gal(b1-3)GalNAc(b1-3)Gal(a1-4)Gal(b1-4)Glc
# Outline: as §1
# [8] = target: Gal(b1-3)GalNAc(b1-4)Gal(b1-4)Glc
# Outline: as §1
# [9] = target: Gal(b1-3)GalNAc(b1-4)[Neu5Ac(a2-3)]Gal(b1-4)Glc
# Outline: as §1
# Gal(b1-3)GlcNAc = target: Gal(b1-3)GlcNAc
# Outline: as §1
# [10] = target: Gal(b1-3)GlcNAc(b1-2)Man(a1-3)[Gal(b1-3)GlcNAc(b1-2)Man(a1-6)]Man(b1-4)GlcNAc(b1-4)GlcNAc
# Outline: as §1
# [11] = target: Gal(b1-3)GlcNAc(b1-3)Gal(b1-3)GlcNAc
# Outline: as §1
# [12] = target: Gal(b1-3)GlcNAc(b1-3)Gal(b1-4)Glc
# Outline: as §1
# [13] = target: Gal(b1-3)GlcNAc(b1-3)Gal(b1-4)GlcNAc
# Outline: as §1
# [14] = target: Gal(b1-3)[Fuc(a1-4)]GlcNAc
# Outline: as §1
# [15] = target: Gal(b1-3)[Fuc(a1-4)]GlcNAc(b1-3)Gal(b1-3)[Fuc(a1-4)]GlcNAc
# Outline: as §1
# [16] = target: Gal(b1-3)[Fuc(a1-4)]GlcNAc(b1-3)Gal(b1-4)GlcNAc
# Outline: as §1
# [17] = target: Gal(b1-3)[Fuc(a1-4)]GlcNAc(b1-3)Gal(b1-4)[Fuc(a1-3)]GlcNAc
# Outline: as §1
# [18] = target: Gal(b1-3)[GlcNAc(b1-6)]GalNAc
# Outline: as §1
# [19] = target: Gal(b1-3)[Neu5Ac(a2-6)]GalNAc
# Outline: as §1
# [20] = target: Gal(b1-3)[Neu5Ac(a2-6)]GlcNAc(b1-4)Gal(b1-4)Glc
# Outline: as §1
# [21] = target: Gal(b1-3)[Neu5Ac(a2-6)]GlcNAc(b1-6)Gal(b1-4)Glc
# Outline: as §1
# [22] = target: Gal(b1-3)[Neu5Ac(b2-6)]GalNAc
# Outline: as §1
# [23] = target: Gal(b1-4)GalNAc(a1-3)[Fuc(a1-2)]Gal(b1-4)GlcNAc
# Outline: as §1
# [24] = target: Gal(b1-4)GalNAc(b1-3)[Fuc(a1-2)]Gal(b1-4)GlcNAc
# Outline: as §1
# Gal(b1-4)Glc = target: Gal(b1-4)Glc
# Outline: as §1
# Gal(b1-4)Glc6S = target: Gal(b1-4)Glc6S
# Outline: as §1
# Gal(b1-4)GlcNAc = target: Gal(b1-4)GlcNAc
# Outline: as §1
# [25] = target: Gal(b1-4)GlcNAc(a1-6)Gal(b1-4)GlcNAc
# Outline: as §1
binder,measurement,setting,value
CD83 (Homo sapiens) (protein) MSRGLQLLLLSCAYSLAPATPEVKVACSEDVDLPCTAPWDPQVPYTVSWVKLLEGGEERMETPQEDHLRGQHYHQKGQNGSFDAPNERPYSLKIRNTTSCNSGTYRCTLQDPDGQRNLSGKVILRVTGCPAQRKEETFKKYRAETSEQKLISEEDLSRGSDDDDKAEPRGP,glycan array binding signal (z-score),[1],0.154
same,glycan array binding signal (z-score),[2],1.06
same,glycan array binding signal (z-score),[3],-0.148
same,glycan array binding signal (z-score),[4],-0.097
same,glycan array binding signal (z-score),Fuc(a1-4)GlcNAc,-0.109
same,glycan array binding signal (z-score),Fuc(b1-3)GlcNAc,-0.25
same,glycan array binding signal (z-score),Gal(a1-2)Gal,-0.371
same,glycan array binding signal (z-score),Gal(a1-3)Gal,-0.245
same,glycan array binding signal (z-score),Gal(a1-3)Gal(b1-3)GlcNAc,-0.137
same,glycan array binding signal (z-score),Gal(a1-3)Gal(b1-4)Glc,-0.193
same,glycan array binding signal (z-score),Gal(a1-3)Gal(b1-4)GlcNAc,-0.153
same,glycan array binding signal (z-score),[5],-0.367
same,glycan array binding signal (z-score),Gal(a1-3)GalNAc,0.049
same,glycan array binding signal (z-score),[6],-0.454
same,glycan array binding signal (z-score),Gal(a1-4)Gal(b1-4)Glc,-0.136
same,glycan array binding signal (z-score),Gal(a1-4)Gal(b1-4)GlcNAc,-0.203
same,glycan array binding signal (z-score),Gal(a1-4)GlcNAc,-0.298
same,glycan array binding signal (z-score),Gal(a1-6)Glc,-0.204
same,glycan array binding signal (z-score),Gal(b1-2)Gal,-0.222
same,glycan array binding signal (z-score),Gal(b1-3)Gal,0.051
same,glycan array binding signal (z-score),Gal(b1-3)Gal(b1-4)GlcNAc,-0.143
same,glycan array binding signal (z-score),Gal(b1-3)GalNAc,-0.22
same,glycan array binding signal (z-score),[7],-0.322
same,glycan array binding signal (z-score),[8],-0.09
same,glycan array binding signal (z-score),[9],-0.465
same,glycan array binding signal (z-score),Gal(b1-3)GlcNAc,-0.134
same,glycan array binding signal (z-score),[10],-0.207
same,glycan array binding signal (z-score),[11],-0.226
same,glycan array binding signal (z-score),[12],-0.32
same,glycan array binding signal (z-score),[13],-0.163
same,glycan array binding signal (z-score),[14],-0.111
same,glycan array binding signal (z-score),[15],0.148
same,glycan array binding signal (z-score),[16],-0.144
same,glycan array binding signal (z-score),[17],-0.243
same,glycan array binding signal (z-score),[18],-0.169
same,glycan array binding signal (z-score),[19],-0.337
same,glycan array binding signal (z-score),[20],0.089
same,glycan array binding signal (z-score),[21],-0.336
same,glycan array binding signal (z-score),[22],-0.341
same,glycan array binding signal (z-score),[23],-0.434
same,glycan array binding signal (z-score),[24],-0.059
same,glycan array binding signal (z-score),Gal(b1-4)Glc,-0.266
same,glycan array binding signal (z-score),Gal(b1-4)Glc6S,-0.254
same,glycan array binding signal (z-score),Gal(b1-4)GlcNAc,-0.322
same,glycan array binding signal (z-score),[25],-0.353
